# Results published in PubChem BioAssay AID1963576 (National Center for Advancing Translational Sciences (NCATS), 2024).
# The campaign covered roughly 46,000 compounds. About 60 (0.1%) were called active. Not shown: some 3% with an inconclusive outcome. Calls follow the shape of the dose curve; as a rule, active = well fitted inhibition curve with a large enough effect; inconclusive = small, poorly fitted or top-dose-only effect; inactive = no such curve, though single readings can be large or run the other way. The list shows a part of the results.
# Experiment: Primary qHTS assay for Inhibitors of ovarian cancer metastasis using an organotypic tumor microenvironment (TME) model. Also: nearly all actives have a fitted effect of over 65% in size.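 As to activity change, negative = inhibition: plate controls were DMSO wells for no effect and tomatine positive control wells for full effect.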
# Settings: SKOV3ip1-GFP adhesion/invasion on 3D omental model, fluorescence; series mostly up to 45.8 µM; activity change, negative = inhibition: at the top concentration
# Outline: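 A 3D layer of primary human omental fibroblasts, mesothelial cells, fibronectin and collagen I, grown 48 hr, received SKOV3ip1-GFP cells in serum-free medium plus compounds at 0.36-46 umol/L. After 2 hr RT and 16 hr 37 C, fixed adherent GFP cells were counted; normalized to DMSO and tomatine.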
SMILES,"activity change, negative = inhibition",outcome
Cc1ccc(N(CC(=O)NCCc2ccc(Cl)cc2)S(=O)(=O)N(C)C)cc1,inactive: 6.15%,
COc1cccc(NC(=O)CSc2nc3c(oc4ccccc43)c(=O)n2Cc2ccco2)c1,inactive: 7.38%,
O=C(Nc1ccc2oc(-c3cccnc3)nc2c1)c1cccc(Br)c1,inactive: 0.173%,
O=C(CCSc1nc(-c2ccco2)cc(C(F)(F)F)n1)Nc1cccc(O)c1,,inactive
Cc1ccc(OCC(=O)Nc2ccc(S(=O)(=O)Nc3cc(C)nc(C)n3)cc2)c(Br)c1,inactive: 27.2%,
Cc1ccc(C)n1-c1nnc(N2CCCC(C(=O)NCc3ccc(Cl)cc3)C2)s1 (stereo not given),,inactive
COc1ccc(C2=CC(c3ccc(F)cc3)n3ncc(C(=O)Nc4ccc(C)cc4)c3N2)cc1 (stereo not given),inactive: -12%,
Cc1ccc(CN2CCc3nc(N4CCN(c5ncccn5)CC4)ncc3C2)cc1,inactive: -4.66%,
CCc1ccc(CNC(=O)c2sc3ncccc3c2-n2c(C)ccc2C)cc1,inactive: -5.07%,
Cc1ccc(-c2nc3cc(C(C)C)ccc3o2)cc1NC(=O)c1cc2ccccc2o1,,inactive
O=C(Cn1ccn(-c2ccc(F)c(F)c2)c(=O)c1=O)Nc1ccccc1F,inactive: 1.5%,
CCOc1ccccc1CNS(=O)(=O)c1ccc2c(c1)CCCN2C(C)=O,inactive: -3.41%,
Cc1cn2c(=O)cc(COC(=O)c3cccc(NC(=O)COc4ccccc4Cl)c3)nc2s1,,inactive
COc1cc(OC)cc(C(=O)Oc2c(Sc3ccccc3)c(C)nn2C(C)(C)C)c1,inactive: -5.12%,
COc1ccccc1-c1nc2c(c(SCc3cccc(Cl)c3)n1)Cc1c(CO)cnc(C)c1O2,inactive: 0.177%,
CCOC(=O)c1ccccc1NC(=O)N1CCc2c(sc(C)c2CC)C1c1ccccc1 (stereo not given),inactive: -1.19%,
Cc1cccc(NC(=O)C(=O)NCC(c2ccc3c(c2)OCO3)N2CCOCC2)c1C (stereo not given),inactive: -12.4%,
COc1cc(-c2noc(CN3CCN(c4ccccc4)CC3)n2)cc(OC)c1OC,inactive: -0.79%,
CC(C)CCNC(=O)CCCN1C(=O)c2ccccc2Sc2ncccc21,inactive: -6.97%,
Fc1ccc(C(c2ccc(F)cc2)N2CCN(CC=Cc3ccccc3)CC2)cc1,inactive: -7.14%,
Cc1cc(C)c(NC(=O)C2CCN(c3nc4ccccc4[nH]3)CC2)c(C)c1,inactive: -0.759%,
O=C(Nc1cccs1)Nc1cc(C(F)(F)F)ccc1Cl,inactive: -28.6%,
CN1CCN(C(CNC(=O)c2cccc(F)c2)c2ccc3c(c2)OCO3)CC1 (stereo not given),inactive: 2.66%,
CCOc1ccc(-n2c(Cc3ccccc3)nnc2SCc2nc(-c3ccccc3OC)no2)cc1,inactive: 5.95%,

SMILES,"activity change, negative = inhibition",outcome
Cc1ccc2c(c1)-c1nc(-c3ccc(Cl)cc3)cc(-c3coc4ccccc4c3=O)c1CO2,inactive: 9.65%,
Cc1cccc(CSc2ncc(CO)n2Cc2ccc(F)cc2)c1,,inactive
O=C(Nc1ccc2oc(-c3ccccc3F)nc2c1)c1ccccc1Cl,inactive: -2.88%,
Cc1cc(C)c2c(=O)cc(C(=O)Nc3sc4c(c3C(=O)NCc3ccccc3)CCCC4)oc2c1,inactive: -13%,
CCCSc1ncc(Cl)c(C(=O)Nc2ccc(S(=O)(=O)Nc3ncccn3)cc2)n1,inactive: 1.07%,
COc1ccc(NC(=O)CSc2ncc3c(n2)-c2cc(Cl)ccc2N(Cc2ccccc2F)S3(=O)=O)cc1,inactive: 166%,
O=C(Nc1ccc2nc(SCC(=O)N3CCCc4ccccc43)sc2c1)c1cccc(F)c1,,inactive
COC(=O)c1cc(S(=O)(=O)NCC2CCN(Cc3ccc(F)cc3)CC2)cn1C,inactive: 5.9%,
CCOC(=O)c1c(NC(=O)CSc2cn(CCNC(=O)c3ccccc3F)c3ccccc23)sc2c1CCC2,inactive: 17.9%,
COc1cc(-c2nnc(SCCOc3ccc(Cl)cc3C)o2)cc(OC)c1OC,inactive: 3.01%,
Fc1ccc(-n2ncc3c(NCCCN4CCOCC4)ncnc32)cc1,inactive: 1.91%,
COc1cc(NC(=O)CCc2c(C)nn(-c3ccc4nncn4n3)c2C)cc(OC)c1OC,inactive: -0.445%,
Cc1ccc(Cl)cc1N1CCN(S(=O)(=O)c2ccc3[nH]c4c(c3c2)CCCCC4)CC1,inactive: -13.7%,
CC=C1C2C=C(C)CC1(N)c1ccc(=O)[nH]c1C2 (stereo not given),inactive: 6.34%,
Cc1ccc2c(c1)N(CCC(=O)NCc1ccc(F)cc1)C(=O)CO2,,inactive
COc1cccc(CNC(=O)c2ccc(CSc3nc4ccncc4n3Cc3cccc(C)c3)cc2)c1,inactive: 5.76%,
CC(C)COC(=O)/C(C#N)=C\c1ccc(-c2ccccc2Cl)o1,inactive: 1.39%,
COc1cccc(N2CCN(C(=O)c3ccc4c(=O)n(CCc5ccccc5)c(=O)[nH]c4c3)CC2)c1,,inactive
COc1ccc(NC(=O)CSc2cn(CC(=O)N3CCOCC3)c3ccccc23)cc1OC,inactive: 1.52%,
Cc1c(CC(=O)NCCc2ccccc2F)c(=O)oc2c(C)c3occ(C(C)(C)C)c3cc12,,inactive
O=C(Nc1ccccc1)C(Cc1ccccc1)N1Cc2ccccc2C1=O (stereo not given),inactive: 20.4%,
Cc1ccc(C)c(NC(=O)CCN2C(=O)c3ccccc3Sc3ncccc32)c1,inactive: -25.6%,
O=C(CSc1ncc(S(=O)(=O)c2ccc(Br)cc2)c(=O)[nH]1)NCc1ccc(Cl)cc1,inactive: 7.42%,
Cc1ccc(Cl)c2c1N[C@@H](c1ccc(C(=O)O)cc1)[C@H]1CC=C[C@@H]21,inactive: -11.1%,

SMILES,"activity change, negative = inhibition",outcome
COc1ccc(-c2cc(C(=O)NCc3cc(OC)c(OC)c(OC)c3)[nH]n2)cc1,inactive: -11.7%,
CCc1ccc(S(=O)(=O)c2nnn3c2nc(N2CCC(C)CC2)c2cc(Cl)ccc23)cc1,inactive: -0.396%,
Cc1cccc(OCC(=O)Nc2c(C)ccc3nsnc23)c1C,inactive: -16.9%,
COc1cccc(N2CCN(S(=O)(=O)c3cc(Br)cc4c3N(C(=O)C3CC3)CC4)CC2)c1,inactive: 8.31%,
Cc1nc(N2C(=O)c3oc4ccccc4c(=O)c3C2c2ccccc2F)sc1C (stereo not given),,inactive
COc1ccc(C2=NS(=O)(=O)N(C)C(C(=O)Nc3cc(C)ccc3O)=C2)cc1OC,inactive: 9.65%,
CCOC(=O)c1c(C)n(-c2ccccc2)c2ccc(OC(=O)c3ccccc3)cc12,inactive: -2.22%,
Cc1cccc(-c2noc(CN(C(=O)COc3ccc(C(C)C)cc3)C(C)C)n2)c1,,inactive
Cc1ccc(C)c(CSc2nc3ncccc3[nH]2)c1,inactive: -0.131%,
CN1CCN(C(CNC(=O)C(=O)Nc2ccccc2)c2ccc3c(c2)OCO3)CC1 (stereo not given),inactive: 0.643%,
Cc1cccc(N2C(=O)CSC23C(=O)N(Cc2cccc(F)c2)c2ccccc23)c1 (stereo not given),,inactive
COc1ccccc1N1CCN(c2cc(C)nc3nncn23)CC1,inactive: 1.93%,
CCOc1ccc(CNC(=O)CSc2c3c(nc4ccc(Cl)cc24)CCCC3)cc1,inactive: 3.87%,
COc1ccc(C)c2sc(N3CCN(C(=O)c4ccco4)CC3)nc12,inactive: 4.59%,
CC(C)c1cc(-c2nc(-c3cccc(Cl)c3)no2)n[nH]1,inactive: -21.8%,
Cc1ccc(CNC(=O)Cn2c3ncccc3c(=O)n2-c2ccc(C)cc2)cc1,inactive: -5.77%,
Cc1ccc2oc(C(=O)Nc3sc4c(c3C(=O)NCc3ccco3)CCC4)cc(=O)c2c1,inactive: -8.81%,
Cc1nc2c(c(C)nn2C(C)(C)C)c(C)c1CCC(=O)Nc1ccc(F)cc1,inactive: -2.15%,
Cc1nn2c(=O)cc(COC(=O)c3ccc(NC(=O)COc4ccccc4F)cc3)nc2s1,inactive: -5.45%,
C=C(C)[C@@H]1CC[C@]2(C(=O)O)CC[C@]3(C)[C@H](CC[C@@H]4[C@@]5(C)CC[C@H](O)C(C)(C)[C@@H]5CC[C@]43C)[C@@H]12,inactive: -8.34%,
CC(=O)c1ccc(N2CCN(C(=O)CCCn3c(=O)[nH]c4ccsc4c3=O)CC2)cc1,inactive: 11.4%,
Cn1c(C(=O)NCc2cccc(Cl)c2)cc2oc3ccccc3c21,,inactive
O=[N+]([O-])c1ccc(O)c(-c2ccnc3cc(-c4ccccc4)nn23)c1,,inactive
Cc1ccc(Cn2c(CN3CCN(c4cccc(Cl)c4)CC3)nc3c2c(=O)n(C)c(=O)n3C)cc1,inactive: -2.68%,

SMILES,"activity change, negative = inhibition",outcome
Cc1nn(CC(=O)NCc2ccc(N(C)C)cc2)c(=O)c2nn(-c3ccccc3)c(C)c12,inactive: -5.23%,
COCCCNC(=O)c1ccc(Cn2c(=O)c3cccn3c3cccnc32)cc1,inactive: -7.46%,
CCC(=C(CC)c1ccc(O)cc1)c1ccc(O)cc1,inactive: -16.9%,
COc1ccccc1CNC(=O)C1CCN(c2nnc(C)c3c(C)n(-c4ccccc4)nc23)CC1,inactive: -2.54%,
CC(C)CC(=O)OCc1cc(=O)n2nc(C3CCCCC3)sc2n1,inactive: 0.671%,
COc1ccc(NC(=O)CC(C)S(=O)(=O)c2cc3c(cc2C)NC(=O)CO3)cc1OC (stereo not given),inactive: -7.19%,
O=C(Nc1nnc(S(=O)(=O)N2CCCCCC2)s1)c1ccc(Cl)cc1,inactive: 7.31%,
CSc1nn(CC(=O)Nc2cc(C)ccc2C)c(N)c1S(=O)(=O)c1ccccc1,inactive: 1.91%,
Cc1ccc2c(=O)cc(C(=O)Nc3c(C(=O)c4ccc(F)cc4)oc4ccccc34)oc2c1C,inactive: -7.17%,
NC(N)=Nc1nc(CSCCC(N)=NS(N)(=O)=O)cs1,inactive: 12.5%,
COc1ccc(CCNC(=O)c2c(C)oc3ncn(CC(C)C)c(=O)c23)c(OC)c1,inactive: 2.54%,
COc1ccc(Nc2c(-c3ccsc3)nc3nc(C)cc(C)n23)cc1,,inactive
Cc1cccc(C)c1OC(=O)CSc1nnc(-c2ccc3c(c2)OCO3)o1,inactive: -5.87%,
CCC(CC)C(=O)Nc1cc(-c2nc3cccnc3s2)ccc1C,inactive: -2.82%,
CCOC(=O)Cn1c(=O)oc2cc(S(=O)(=O)N3CCN(c4ccc(F)cc4)CC3)ccc21,inactive: 12.1%,
Cc1ccc(NC(=O)CN2C(=O)CC(c3ccc(C)c(C)c3)=Nc3ccccc32)cc1,inactive: 12.7%,
Cc1ccc(C(C)C)c(OCC(=O)Nc2ccc(O)c(-c3nc4cc(Cl)ccc4o3)c2)c1,inactive: 5.61%,
CCCOc1cccc(C(=O)Nc2cccc(NC(=O)c3ccc(Cl)cc3Cl)c2)c1,inactive: -6.78%,
CC(C)C(=O)Nc1nnc(S(=O)(=O)N2c3ccccc3CC2C)s1 (stereo not given),inactive: 3.72%,
CCSc1nc2ccccc2c(OCc2cc(C(=O)OC)ccc2OC)c1C(=O)OC,inactive: -11.4%,
COC(=O)c1c(C)sc(-c2c(-c3ccc(OC)c(F)c3)[nH]c3c2c(=O)n(C)c(=O)n3C)c1O,inactive: -9.24%,
CCS(=O)(=O)Nc1ccc(-c2cn3c(C)csc3n2)cc1,inactive: -2.82%,
COc1ccc(C(=O)Oc2cc(-c3ccc(OC)c(OC)c3)cc(=O)c3c(C)oc(C)c23)cc1,inactive: -2.72%,
